Experimental data: publication PMC4336329 (PLoS ONE, 2015)
Out of some 310,000 compounds screened, about 2,200 (0.71%) showed an effect of 50% or more. The effect is printed as a negative number. Some of the results follow.

Target: human ether-à-go-go-related gene (hERG) potassium channel (human, UniProt Q12809)
Assay: primary screen, population patch clamp on CHO cells stably expressing hERG

Chain of human ether-à-go-go-related gene (hERG) potassium channel (Q12809 whole entry, looked up): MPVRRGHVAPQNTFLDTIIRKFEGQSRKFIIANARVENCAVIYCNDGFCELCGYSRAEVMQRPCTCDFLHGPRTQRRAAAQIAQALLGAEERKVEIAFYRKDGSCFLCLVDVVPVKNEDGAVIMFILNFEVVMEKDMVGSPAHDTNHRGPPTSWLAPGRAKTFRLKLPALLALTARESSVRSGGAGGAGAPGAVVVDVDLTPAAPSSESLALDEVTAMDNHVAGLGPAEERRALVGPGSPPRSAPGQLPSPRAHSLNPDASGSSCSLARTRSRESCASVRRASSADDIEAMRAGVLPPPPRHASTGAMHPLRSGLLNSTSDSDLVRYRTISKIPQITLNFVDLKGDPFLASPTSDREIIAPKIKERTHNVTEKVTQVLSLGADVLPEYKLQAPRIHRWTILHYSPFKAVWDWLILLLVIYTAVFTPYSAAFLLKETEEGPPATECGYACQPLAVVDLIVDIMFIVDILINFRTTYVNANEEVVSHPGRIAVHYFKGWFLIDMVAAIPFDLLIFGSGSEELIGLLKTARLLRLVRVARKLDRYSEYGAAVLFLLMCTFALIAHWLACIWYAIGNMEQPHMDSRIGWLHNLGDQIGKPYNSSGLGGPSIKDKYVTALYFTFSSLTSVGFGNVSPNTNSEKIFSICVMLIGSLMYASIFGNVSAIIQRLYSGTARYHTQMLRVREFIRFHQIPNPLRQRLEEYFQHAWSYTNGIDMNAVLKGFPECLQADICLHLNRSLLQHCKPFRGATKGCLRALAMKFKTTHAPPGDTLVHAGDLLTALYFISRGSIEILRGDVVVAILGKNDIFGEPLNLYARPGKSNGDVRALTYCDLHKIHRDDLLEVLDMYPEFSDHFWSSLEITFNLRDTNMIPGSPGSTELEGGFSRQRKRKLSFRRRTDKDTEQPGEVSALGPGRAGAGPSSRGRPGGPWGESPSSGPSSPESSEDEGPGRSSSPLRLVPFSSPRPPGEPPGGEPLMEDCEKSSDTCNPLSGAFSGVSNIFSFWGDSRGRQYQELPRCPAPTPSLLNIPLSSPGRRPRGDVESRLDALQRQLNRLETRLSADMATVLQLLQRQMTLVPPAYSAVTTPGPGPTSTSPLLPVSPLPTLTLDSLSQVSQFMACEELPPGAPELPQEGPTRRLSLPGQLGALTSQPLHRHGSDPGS

Compound	hERG current change (%, negative = inhibition) at 1uM [%]
O=C(OCC(=O)N1CCN(C(=O)c2ccco2)CC1)c1ccc(Cl)cc1	-5.66
CC(C)Cc1nnc(NC(=O)CSc2nc(O)c(-c3ccccc3)c(=O)[nH]2)s1	18.2
COc1ccc(C/C(N)=N/OC(=O)Cc2ccc(OC)c(OC)c2)cc1	2.45
Cc1ccc(NC(=S)N(CCN(C)C)Cc2cccs2)c(C)c1	6.69
O=C1CCc2cc(S(=O)(=O)N3CCN(Cc4ccc5c(c4)OCO5)CC3)ccc2N1	-46.1
COc1ccc(C(=O)NCCc2c[nH]c3ccc(OC)cc23)cc1	12.9
COc1cc(N)c(Cl)cc1NC(=O)c1ccccc1	14.1
CC1CCCCC1NS(=O)(=O)c1ccc(S(=O)(=O)NCc2ccncc2)cc1 (stereo not shown)	12.4
CC(=O)c1cccc(N(CC(=O)Nc2ccc(F)cc2)S(C)(=O)=O)c1	2.01
COc1ccc(S(=O)(=O)N2CCOC23CCN(S(=O)(=O)c2ccc(Cl)cc2)CC3)cc1	6.09
O=C(COC(=O)CNC(=O)c1ccco1)Nc1ccccc1OC(F)F	10.5
CCOC(=O)c1[nH]cnc1C(=O)NCc1ccccc1	4.43
CSc1nnc(SCC(=O)NC(=O)c2ccccc2)s1	13.4
C=CCC(Nc1ccccc1)c1cccc(OC)c1OC (stereo not shown)	10.1
CCOc1ccc(NC(=O)CCNC(=O)Cn2ccc3ccccc3c2=O)cc1	11.9
COc1cc(C=O)ccc1OCc1ccc(Cl)nc1	14.5
CCSc1ccc(-c2cccc([N+](=O)[O-])c2)nn1	8.72
Cc1ccc(N(C)S(=O)(=O)c2ccc3c(c2)NC(=O)C(C)S3)cc1 (stereo not shown)	9.53
CC(=O)N1CC23C=CC(CC2CC12CCCCCC2)O3 (stereo not shown)	7.07
Cc1nn(-c2ccccc2)c(Cl)c1/C=N/NC(=O)c1cccnc1	3
CCCC1=C(C(=O)OCC)C(c2c(C)nn(-c3ccccc3)c2Cl)C(C#N)=C(N)O1 (stereo not shown)	-3.31
CC1CCC(C(=O)NC(C(=O)N2CCc3ccccc3C2)C(C)C)CC1 (stereo not shown)	5.96
CCC1=NN2C(=N)/C(=C\c3cccn3-c3ccc(C)cc3C)C(=O)N=C2S1	9.77
C=CCN1C(=O)c2ccc(C(=O)N(CCOC)c3c(N)n(CCCC)c(=O)[nH]c3=O)cc2C1=O	3.79
CC(C)C[C@@H](CO)N1CCN(Cc2ccc([N+](=O)[O-])cc2)CCC1=O	2.54
